Laboratory results published in paper PMC4336329 (PLoS ONE, 2015).
In all, about 310,000 compounds went through this assay and about 14,000 (4.5%) showed an effect of 50% or more. Effects have a minus sign here. The list shows a part of the results.

The compounds below were run against human ether-à-go-go-related gene (hERG) potassium channel (human, UniProt Q12809) (assay: primary screen, population patch clamp on CHO cells stably expressing hERG).
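Further: peak tail current of the secondary pulse compared with the same well before compound.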

human ether-à-go-go-related gene (hERG) potassium channel, sequence (Q12809 whole entry, looked up): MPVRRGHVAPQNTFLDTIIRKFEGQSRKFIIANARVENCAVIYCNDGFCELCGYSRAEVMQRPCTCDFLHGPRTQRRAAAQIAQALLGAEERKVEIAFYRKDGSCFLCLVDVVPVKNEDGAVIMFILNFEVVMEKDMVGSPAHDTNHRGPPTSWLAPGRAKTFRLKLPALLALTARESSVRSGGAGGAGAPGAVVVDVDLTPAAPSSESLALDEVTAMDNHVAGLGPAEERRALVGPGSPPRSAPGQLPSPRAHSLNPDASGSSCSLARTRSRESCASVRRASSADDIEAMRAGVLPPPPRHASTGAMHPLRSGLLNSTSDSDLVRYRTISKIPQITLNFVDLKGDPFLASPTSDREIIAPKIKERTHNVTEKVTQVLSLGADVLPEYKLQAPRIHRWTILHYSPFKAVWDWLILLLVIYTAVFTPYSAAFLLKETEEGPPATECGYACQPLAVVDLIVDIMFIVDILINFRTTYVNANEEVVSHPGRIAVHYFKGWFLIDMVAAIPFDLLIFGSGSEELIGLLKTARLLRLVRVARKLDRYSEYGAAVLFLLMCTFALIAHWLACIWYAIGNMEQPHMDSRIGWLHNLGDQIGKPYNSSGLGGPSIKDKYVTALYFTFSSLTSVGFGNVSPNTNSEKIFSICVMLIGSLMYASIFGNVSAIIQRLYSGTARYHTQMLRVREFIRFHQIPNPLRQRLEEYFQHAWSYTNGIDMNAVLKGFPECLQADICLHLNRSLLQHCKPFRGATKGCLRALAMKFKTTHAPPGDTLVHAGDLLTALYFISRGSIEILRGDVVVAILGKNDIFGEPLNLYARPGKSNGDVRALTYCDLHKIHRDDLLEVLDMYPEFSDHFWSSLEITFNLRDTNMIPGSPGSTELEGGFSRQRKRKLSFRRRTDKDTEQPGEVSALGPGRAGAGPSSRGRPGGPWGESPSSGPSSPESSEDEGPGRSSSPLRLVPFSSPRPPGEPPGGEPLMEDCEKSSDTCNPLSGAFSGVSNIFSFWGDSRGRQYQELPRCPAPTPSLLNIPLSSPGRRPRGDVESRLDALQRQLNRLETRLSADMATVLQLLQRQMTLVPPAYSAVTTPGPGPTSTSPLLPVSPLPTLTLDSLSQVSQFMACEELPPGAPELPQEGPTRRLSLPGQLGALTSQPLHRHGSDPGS

In order of rising “hERG current change (%, negative = inhibition) at 10uM” value:
1. CC(C)c1cc(C(=O)N2CCCC(N3CCN(c4ccc(F)cc4)CC3)C2)no1 (centres unmarked)  -72.1%
2. CCN1CCN(c2ncc(C(=O)Nc3ccccc3C(=O)OC)c3ccccc23)CC1  -47.2%
3. COc1ccc(-n2c(COc3ccc(C)cc3)nnc2SCc2ccc(C#N)cc2)cc1  -29.6%
4. CSCC[C@H](NC(=O)CC(C)(C)C)c1nc2ccccc2[nH]1  -22%
5. c1cc2c(cc1[C@H]1OC[C@H]3[C@@H]1CO[C@@H]3c1ccc3c(c1)OCO3)OCO2  -19.2%
6. Cc1ccc(CCNC(=O)CCNS(=O)(=O)c2ccc3c(c2)oc(=O)n3C)cc1  -18%
7. CN(Cc1ccccc1F)C(=O)COc1ccc(C(=O)c2ccccc2)cc1  -13.9%
8. C/C=C/CSc1nc2c(c(=O)[nH]c(=O)n2C)n1Cc1ccc(C)cc1  -6.04%
9. CSc1ccc(/C=N/N2CCN(Cc3ccccc3)CC2)cc1  -5.46%
10. COc1cc(NC(=O)CN(C)S(=O)(=O)c2ccc3c(c2)CC(C)N3C(C)=O)cc(OC)c1 (centres unmarked)  -5.42%
11. O=C(Nc1ccc2oc(-c3ccncc3)nc2c1)c1ccccc1F  -4.45%
12. CCC(C)NC(=O)CSc1nc(-c2cccs2)cc(C(F)(F)F)n1 (centres unmarked)  -2.68%
13. Cc1cc(NC(=O)CSc2[nH]c(=O)cc(C(F)(F)F)c2C#N)no1  -2.45%
14. COc1ccc(CN(CCC#N)C(=S)NC(=O)c2ccccc2)cc1  0.624%
15. CCOC(=O)c1cnn(-c2ncnc3sc(C)c(C)c23)c1N  1.79%
16. CC(=O)Oc1ccc2oc(=O)c3c(c2c1)CCCN3C(=O)CN1CCOCC1  1.97%
17. Cc1cc(C)cc(N2C(=O)CN(Cc3sccc3C)C2=S)c1  2.49%
18. COC(=O)c1c(C)[nH]c(C(=O)C(C)OC(=O)c2c(C)noc2C)c1C (centres unmarked)  2.9%
19. Cc1ccc(S(=O)(=O)NC23CC4CC(CC(C4)C2)C3)cc1  3.97%
20. COC/C=C/C1=CC2=CC(=O)C(C)(OC(=O)c3cnc4ccccc4n3)C(=O)C2=CN1C(CO)CO (centres unmarked)  4.76%
21. Cc1nc2ccc(NC(=O)c3cc(S(=O)(=O)N(C)c4ccccc4)ccc3Cl)cc2s1  4.9%
22. FC(F)(F)c1cnc(Oc2cccc3ccccc23)c(Cl)c1  5.05%
23. COc1ccc(-c2nnc(SC(C)C(=O)NNC(=O)c3ccc(C)cc3)o2)cc1 (centres unmarked)  8.04%
24. CC(Oc1ccccc1)C(=O)Nc1ccc(S(=O)(=O)N2CCCC2)cc1 (centres unmarked)  8.84%
25. CSCC[C@H](NC(=O)C(C)(C)Oc1ccc(Cl)cc1)c1nc2ccccc2[nH]1  8.89%
26. COc1ccc(C(C(=O)NC2CCCCC2)N(C(=O)c2snc(C(N)=O)c2N)c2ccc(OC)cc2OC)cc1 (centres unmarked)  9.37%
27. CC(OC(=O)CSc1ccc(F)cc1)C(=O)NC1(C#N)CCCCC1 (centres unmarked)  9.52%
28. O=C(O)C/C=C(\NC(=O)OCc1ccccc1)C(=O)OCc1ccccc1  10%
29. CCOc1ccc(N(CC(=O)NCCSCc2ccc(C)cc2)S(C)(=O)=O)cc1  10.1%
30. CCNC(=O)N1CCC(c2nc3ccccc3s2)CC1  10.3%
31. COc1cc(NS(=O)(=O)c2ccc(NC(=S)NC(=O)CC(C)C)cc2)nc(OC)n1  11.4%
32. CCCc1nc(NCc2ccc3c(c2)OCO3)c2nnn(Cc3ccccc3Cl)c2n1  11.5%
33. CCC(=O)N1CCc2cc(S(=O)(=O)CCC(=O)N3CCN(c4ccc(C(C)=O)cc4)CC3)ccc21  13.1%
34. COc1ccc(N2CCN(C(=O)Cn3c(=O)[nH]c4ccccc4c3=O)CC2)cc1  14.7%
35. Cc1cccc(NC(=O)CNC(=O)COC(=O)CCS(=O)(=O)c2ccccc2)c1C  15.1%
36. CN(C)S(=O)(=O)c1ccc(Cl)c(C(=O)NC2=NCCS2)c1  15.9%
37. Cc1sc2c(c1C)C(=O)/C(=C\Nc1ccncc1)S(=O)(=O)N2C  16.8%
38. FC(F)c1nnc2c(Cl)cc(C(F)(F)F)cn12  17.6%
39. CCC(C)NS(=O)(=O)c1ccc(NC(=O)C2CCCO2)cc1 (centres unmarked)  17.8%
40. Cc1nnc(SCC(=O)N2CCN(C(=O)c3ccco3)CC2)n1-c1ccccc1  18.2%
41. N#Cc1c(NC(=O)c2cnn3cccnc23)sc2c1CCCC2  19.6%
42. CC(=O)Oc1ccc2nc(-c3ccc(Br)o3)oc(=O)c2c1  21.5%
43. O=C(Nc1ccccc1Cl)OCc1cncs1  21.9%
44. Fc1ccc(-n2c(-c3ccc4ccccc4n3)n[nH]c2=S)cc1Cl  31%
